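A five-concentration, 48-hour dose response in 96-well plates underlies each endpoint, interpolated linearly between surrounding concentrations. The concentration for full growth arrest is given as TGI.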 For part of its entries the source gives two or more results. Only these are listed. An entry can have further records. The tests behind the records often covered other concentration ranges, which the source does not state; some values may only mark the edge of a range.
Assays:
Assay in all cases: NCI anticancer screen, dose series, 48 h
MOLT-4 leukemia = test system: MOLT-4 leukemia
CCRF-CEM leukemia = test system: CCRF-CEM leukemia
HCC-2998 colon = test system: HCC-2998 colon
SF-295 CNS = test system: SF-295 CNS
TK-10 renal = test system: TK-10 renal
ACHN renal = test system: ACHN renal
HCT-15 colon = test system: HCT-15 colon

Compound | TGI (MOLT-4 leukemia) | TGI (CCRF-CEM leukemia) | TGI (HCC-2998 colon) | TGI (SF-295 CNS) | TGI (TK-10 renal) | TGI (ACHN renal) | TGI (HCT-15 colon)
CC(=O)c1ccc2c(c1)C(=O)c1sc(C(C)=O)cc1C2=O | 2.79 µM and > 100 µM | 50 µM and 462 nM | 42.8 µM and 3.31 µM |  |  |  | 
CCC1CC(O)c2c(O)c3c(c(O)c2C1O)C(=O)c1cccc(O)c1C3=O (configuration not stated) (tested in a mixture with another compound) |  |  |  | 127 nM and 2.92 µM | 58.9 nM and 2.33 µM | 49 nM and 2.82 µM | 260 nM and 2.93 µM

From PubChem BioAssay (NCI)
